Reference: PMC6919601, “Identification of Plasmodium dipeptidyl aminopeptidase allosteric inhibitors by high throughput screening” (PLoS ONE, 2019)
Out of some 110,000 compounds screened, about 230 (0.21%) showed an effect of 50% or more. The list shows a part of the results.

Biological target: DPAP1 (Plasmodium falciparum, UniProt Q8IIJ9)
Experiment: primary screen, percent inhibition; read by cleavage of a fluorogenic dipeptide substrate; higher = more effect of the substance
Design: species or system P. falciparum D10 trophozoite lysates; single well
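Further: 30 min substrate incubation versus DMSO and 10 µM JCP410 controls.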

Chain of DPAP1 (Q8IIJ9 whole entry, looked up): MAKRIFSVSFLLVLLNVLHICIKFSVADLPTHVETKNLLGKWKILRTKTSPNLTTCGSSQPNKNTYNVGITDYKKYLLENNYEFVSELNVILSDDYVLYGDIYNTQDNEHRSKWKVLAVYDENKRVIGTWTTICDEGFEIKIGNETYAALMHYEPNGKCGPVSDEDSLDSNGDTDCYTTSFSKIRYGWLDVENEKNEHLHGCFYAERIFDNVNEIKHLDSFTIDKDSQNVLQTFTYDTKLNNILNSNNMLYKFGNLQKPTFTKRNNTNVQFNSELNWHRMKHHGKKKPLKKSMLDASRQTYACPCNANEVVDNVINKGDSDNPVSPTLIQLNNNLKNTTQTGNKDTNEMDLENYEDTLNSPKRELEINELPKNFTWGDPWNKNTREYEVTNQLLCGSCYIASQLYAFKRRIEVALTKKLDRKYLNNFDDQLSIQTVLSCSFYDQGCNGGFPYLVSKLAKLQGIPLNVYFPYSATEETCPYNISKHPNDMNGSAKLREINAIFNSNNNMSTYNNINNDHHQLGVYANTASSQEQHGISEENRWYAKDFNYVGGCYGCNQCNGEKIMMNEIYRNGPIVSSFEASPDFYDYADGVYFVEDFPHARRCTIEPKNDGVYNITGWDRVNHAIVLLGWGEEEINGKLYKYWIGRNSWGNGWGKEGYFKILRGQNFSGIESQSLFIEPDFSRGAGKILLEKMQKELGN

Structure (SMILES)	% Inhibition @ 10 uM [%]
Cc1cccc(-n2c(C)nc3sccc3c2=O)c1	-5.13
CCOc1ccc(C2N3CCCN23)cc1 (centres unmarked)	-4.74
COc1ccc(C2Nc3ccccc3C(=O)N2Cc2ccccc2)cc1 (centres unmarked)	2.01
CC(C)c1ccccc1OCC(=O)Nc1ccccc1C(N)=O	-3.26
Cc1ccc(C(=O)Nc2ccc(Br)cc2)cc1S(=O)(=O)N1CCCCCC1	-1.96
Cc1ccc(S(=O)(=O)N(CC(=O)Nc2ccc3c(c2)OCO3)C2CCCCC2)cc1	-6.58
CCN(CC)CP1(=O)OCC(C)(C)CO1	1.29
COCCNC(=O)CCCn1nc(C)c2c(C)n(-c3ccc(C)cc3)nc2c1=O	-1.21
CCN(CC)C(=O)N1CCN(c2ccc(Nc3ccnc4cc5ccccc5cc34)cc2)CC1	10.7
COc1ccc(CC(=O)Nc2ccc3c(c2)CCC3)cc1OC	4.49
COc1ccc(CNC(=O)Cn2ncc3c4ccccc4n(Cc4ccc(F)cc4)c3c2=O)cc1	-3.35
COc1cc(CNC2CCCc3ccccc32)cc(OC)c1OC (centres unmarked)	22.4
Clc1cccc2c(CN3CCOCC3)csc12	-2.97
Cc1nnc(SCC(=O)NCCc2ccco2)c2nn(-c3ccc(Cl)cc3)c(C)c12	6.6
Cc1ccccc1CN1CC(C)OC(C)C1 (centres unmarked)	-0.636
O=C(COc1ccc([N+](=O)[O-])cc1)Oc1ccc(Br)cc1	1.33
O=C(NCc1cc(Br)cc(C(=O)O)c1O)c1ccccc1	-0.415
c1ccc2[nH]c(C3CCNCC3)nc2c1	-4.69
CCOC(=O)c1c(C)[nH]c(C)c1S(=O)(=O)N1CCC(C(=O)NCc2ccccn2)CC1	-0.166
Oc1cccc(/C=N/c2cccc(Br)c2)c1	1.08
Cn1cccc1Cc1nnc(SCC(=O)NCCc2ccccc2)n1-c1ccc(F)cc1	-3.95
CCOc1ccc2nc(N3CCCC(C(=O)NCCCN(C)C4CCCCC4)C3)sc2c1 (centres unmarked)	-1.8
CC(C)OC(=O)Nc1ccc2c(c1)N(C(=O)CCN1CCOCC1)c1ccccc1CC2	-8.03
CC(NC(=O)Cn1c(=O)c2cccn2c2cccnc21)c1ccc2c(c1)OCCO2 (centres unmarked)	1.53
O=C1C2CC=CCC2C(=O)N1c1ccc(Cc2ccncc2)cc1 (centres unmarked)	-19.8
COc1cc(CN2CCSCC2)cc(Br)c1O	-0.127
O=C(CNC(=O)c1ccccc1)NC1(C(=O)NC2CCCC2)CCCCC1	-0.795
c1ccc(Oc2ccc3ccccc3n2)cc1	2.59
CC(C)c1ccc(N(CC(=O)Nc2ccc(Br)cc2)S(C)(=O)=O)cc1	0.793
